Laboratory results published in the supplement of paper PMC3334620.
Over roughly 33,000 sequences, “E-score (-0.5 to 0.5)” has its median near -0.035; the highest 2% begin near 0.35. This is one part of the list.

molecular target: T1, Pdr3 (UniProt P33200); test: PBM E-score (8-mer binding enrichment) (E-score (-0.5 to 0.5)); higher = stronger / more preferred TF binding; most listed sequences are background and not binding sites; conditions: protein concentration: 200 nM; construct: GST-full length
T1 sequence: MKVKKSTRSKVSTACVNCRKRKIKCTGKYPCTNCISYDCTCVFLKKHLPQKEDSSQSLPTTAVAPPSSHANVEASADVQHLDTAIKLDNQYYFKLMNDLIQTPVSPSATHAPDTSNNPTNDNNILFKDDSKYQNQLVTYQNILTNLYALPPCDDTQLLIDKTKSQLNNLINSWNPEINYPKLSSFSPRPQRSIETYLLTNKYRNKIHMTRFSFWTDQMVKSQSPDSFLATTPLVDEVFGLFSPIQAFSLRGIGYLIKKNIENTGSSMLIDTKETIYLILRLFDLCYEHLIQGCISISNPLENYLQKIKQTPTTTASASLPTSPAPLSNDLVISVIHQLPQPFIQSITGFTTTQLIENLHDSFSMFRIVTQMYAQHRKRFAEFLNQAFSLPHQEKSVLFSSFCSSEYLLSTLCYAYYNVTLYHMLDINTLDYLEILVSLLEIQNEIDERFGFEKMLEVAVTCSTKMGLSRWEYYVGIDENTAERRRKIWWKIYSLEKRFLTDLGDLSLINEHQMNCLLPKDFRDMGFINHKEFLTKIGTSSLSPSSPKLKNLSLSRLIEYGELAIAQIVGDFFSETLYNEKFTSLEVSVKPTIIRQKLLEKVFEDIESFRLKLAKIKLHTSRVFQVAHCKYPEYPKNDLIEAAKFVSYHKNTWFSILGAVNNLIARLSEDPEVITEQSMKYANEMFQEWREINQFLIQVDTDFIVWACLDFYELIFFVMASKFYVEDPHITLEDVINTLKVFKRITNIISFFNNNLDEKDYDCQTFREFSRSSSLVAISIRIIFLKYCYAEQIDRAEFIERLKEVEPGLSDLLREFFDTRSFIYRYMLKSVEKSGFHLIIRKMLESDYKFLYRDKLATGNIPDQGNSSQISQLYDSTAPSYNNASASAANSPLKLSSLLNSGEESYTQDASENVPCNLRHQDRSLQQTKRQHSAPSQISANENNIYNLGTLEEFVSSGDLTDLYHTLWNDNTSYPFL
Protocol: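 Universal 'all 10-mer' protein binding microarrays (Agilent AMADID 015681) probed with GST-tagged S. cerevisiae TFs (full-length or DBD) made by in vitro transcription/translation (PURExpress), about 100-200 nM. Bound TF was detected with fluorescent anti-GST. Each ungapped 8-mer (which stands for itself and its reverse complement) is scored by the PBM enrichment score (E-score), a modified Wilcoxon-Mann-Whitney statistic from -0.5 to +0.5, computed with the Universal PBM Analysis Suite. Scale: above 0.35 generally sequence-specific binding.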

Row | Sequence | PBM E-score
1 | AAATACCC | 0.14
2 | AAGCTTGT | -0.0147
3 | GCCGTCAA | -0.048
4 | CGAGCTTA | 0.0148
5 | CCTGATCC | 0.211
6 | AGCGACAA | -0.104
7 | AAGGTTTG | -0.0185
8 | CTTCTGCC | -0.0722
9 | GTTTGGCA | -0.0402
10 | AATGGTGT | -0.0618
11 | ATATTTCC | 0.351
12 | CCTGTCCC | 0.00774
13 | TATGCCGA | 0.121
14 | TGATCGAA | -0.143
15 | GTCGGCGA | -0.0361
16 | CAGCTCAG | -0.139
17 | AGGGCGGA | 0.285
18 | ACCAAGTG | -0.131
19 | AGGGACTC | -0.257
20 | CGTGTCCA | -0.00697
21 | AGAACCTG | -0.235
22 | ATGTCGTA | -0.238
23 | GATTAAAC | 0.145
24 | TAACGATA | 0.0093
25 | CCCTTCAC | -0.139

Row | Sequence | PBM E-score
26 | GGTTCGTA | -0.0473
27 | GCACCATA | -0.0603
28 | CTGCCGTA | -0.124
29 | CTTTTGTC | 0.098
30 | TATCACAA | -0.0953
31 | GGTCGAAA | -0.173
32 | GACCCTAC | -0.142
33 | CGCGGTAA | 0.36
34 | AGGGCCTC | -0.0973
35 | AAGGCTGT | -0.18
36 | GGTACTCA | 0.0687
37 | ATAGCGAT | -0.127
38 | TAGAGCAA | -0.24
39 | ATTCGAAG | -0.0309
40 | AGCTAAAA | -0.084
41 | ATGGCATG | 0.0068
42 | CATTTTAG | 0.192
43 | CGCTCCAC | -0.0506
44 | ACAGCCTC | -0.168
45 | TCTTTACA | -0.0498
46 | AGGGAGTC | -0.36
47 | AAGGTCGT | -0.298
48 | AAAGCCTC | -0.0826
49 | GGATACCA | 0.212
50 | GATACCGA | -0.0263

Row | Sequence | PBM E-score
51 | GAGAGTAC | -0.116
52 | CTACGGAA | 0.407
53 | AACTTGAC | -0.144
54 | CCCTGCAC | -0.0187
55 | GCATTAGA | -0.0471
56 | GCGCCGAC | 0.107
57 | AGTGGAGC | -0.177
58 | ATAAATCA | -0.0127
59 | CCGGTGAA | 0.259
60 | TATGCCAA | -0.0783
61 | CGGAGCTA | 0.22
62 | AGGTGGCA | -0.0746
63 | AAGAGATC | -0.301
64 | CATCTACG | 0.0137
65 | AGCCCCAC | 0.018
66 | AAACTCGC | -0.054
67 | CCACTTAA | -0.0361
68 | ACAGTTGC | 0.015
69 | ATTTACCA | -0.00148
70 | CCGCTTCC | 0.261
71 | AGGTGCTC | -0.139
72 | CAGTAACG | -0.0621
73 | TACCTCGA | -0.0861
74 | TCCCATAA | -0.14
75 | AACACAGT | -0.0579

Row | Sequence | PBM E-score
76 | GGGCTGGA | 0.0575
77 | CGTTCAAG | -0.0511
78 | ACAGTGGC | -0.101
79 | GCAGAGGA | -0.0872
80 | CAGCTAAG | -0.274
81 | CTGAAGTA | -0.0655
82 | ACAACGTG | -0.0902
83 | CGGCAACG | 0.2
84 | GGCTAGAC | -0.0238
85 | CTGCTTAA | -0.0633
86 | CCAGTTAG | -0.168
87 | CTGCCCAG | -0.232
88 | CTGCAAAG | -0.224
89 | GGGGAGCA | -0.102
90 | AACCGGAG | 0.326
91 | GCCGCCAC | -0.0473
92 | CGGTAATC | 0.198
93 | CTATCCTA | -0.0548
94 | ATGGTTAG | -0.0134
95 | CTCCACAC | -0.124
96 | GCAAATCC | 0.107
97 | AGCATCCA | -0.0909
98 | ACTCATGG | -0.16
99 | AGGGGCTG | -0.109
100 | ATTTCTTC | 0.101

Row | Sequence | PBM E-score
101 | GCCTGTTA | -0.0943
102 | GGCAACCA | 0.146
103 | AGATGAAG | -0.141
104 | CCACCGCC | -0.0862
105 | ATTTGGCA | -0.104
106 | GAGACTCA | -0.204
107 | CCATTGCA | -0.277
108 | CCGTAGCC | -0.0862
109 | ACTTACTG | -0.0405
110 | CAATTGAC | -0.0969
111 | CTCGAACA | -0.0366
112 | ACCGACCG | 0.129
113 | AGTTCTAC | -0.225
114 | CAGTTTGA | -0.0285
115 | GCCGCTCC | 0.143
116 | ACACCTGT | -0.0514
117 | CGCTGCAA | -0.208
118 | AAGGCGCT | -0.114
119 | GTCACAAA | -0.0851
120 | AATTCTCT | -0.117
121 | CCCCGGAG | 0.355
122 | GTCTGCCA | -0.122
123 | ACGAAACA | -0.0431
124 | GTCTCCGA | 0.3
125 | ACTGGCCA | -0.0126

Row | Sequence | PBM E-score
126 | AAATTAAA | -0.0437
127 | AATCTGCC | 0.00749
128 | GCATCAGA | -0.0362
129 | GTACCCTA | -0.269
130 | AACGTCTT | -0.294
131 | CGCTGACG | -0.0242
132 | TATGTGCA | -0.0873
133 | TATAAACA | -0.131
134 | AGCTACCG | -0.041
135 | AGTGTACG | -0.00617
136 | ATCCAATA | 0.0632
137 | TAAGCGGA | 0.245
138 | CGTTAGCC | 0.00403
139 | CCCAACCC | 0.0808
140 | CAGAACTA | -0.0819
141 | ACGCCACT | -0.00222
142 | GATAATTA | 0.16
143 | CACTGACG | -0.0968
144 | CGCTCAAA | 0.00172
145 | CCGTTCTC | 0.0763
146 | AAATAGGA | -0.0294
147 | AACTGCTG | -0.0417
148 | AGAGGGTA | -0.16
149 | CGCAGCCG | 0.221
150 | AAAATTGA | -0.152

Row | Sequence | PBM E-score
151 | AGTTTGCC | -0.0284
152 | CCCTACCA | -0.148
153 | CTACTGTA | -0.136
154 | TGGTCTAA | -0.253
155 | GACAGGCC | 0.0678
156 | GCGGCAGA | 0.107
157 | CGAAAGGC | -0.00797
158 | GATTGTGA | 0.0389
159 | GACAGCTC | -0.0324
160 | GTTGAGCA | 0.0323
161 | GAAAGGAC | 0.143
162 | CGAAGCGC | 0.117
163 | TACTCTCA | -0.16
164 | CCGAGCCC | 0.116
165 | CGCCGGTC | 0.21
166 | ATAGTTAA | -0.038
167 | CCTGAGAG | -0.256
168 | AAGCCACC | -0.181
169 | ACCCGTTC | 0.285
170 | AATTGGCT | 0.0615
171 | CGTTTAAC | -0.117
172 | ACTAAACT | -0.121
173 | CGAGCTAG | 0.0187
174 | ATGACAAA | -0.0898
175 | ATCTAACC | 0.122

Row | Sequence | PBM E-score
176 | AGAGGACA | -0.0484
177 | CGAAGGCG | 0.114
178 | GTGTCATA | -0.0195
179 | ATCGCGAC | 0.0765
180 | AGTTCGCA | 0.0197
181 | AACCGCAT | 0.106
182 | CCCAACGG | 0.16
183 | ACTTGGAA | -0.156
184 | ATCTGGCA | -0.111
185 | CCAGACGA | 0.027
186 | ACGGCAAG | 0.0406
187 | AATGCCAC | -0.0043
188 | GTCGTATA | -0.0633
189 | AAGGAGCT | -0.218
190 | CTACATGC | -0.149
191 | ACATCGGC | 0.145
192 | GCATTCAC | 0.118
193 | ACAATAGT | -0.0518
194 | AAGAATAA | -0.138
195 | AACAGACG | 0.0207
196 | AAACTTCG | -0.0284
197 | GCAAAGAC | -0.15
198 | AGGGCTCC | -0.108
199 | GGGACATA | 0.171
200 | ATCTCATG | -0.0344

Row | Sequence | PBM E-score
201 | CCTTGTCG | -0.272
202 | AATGGAAC | 0.0897
203 | AAGAATAG | -0.0593
204 | ACCAGAGC | 0.0757
205 | AACTCAAG | -0.0399
206 | AGTTGGTA | -0.111
207 | ACTTGGCG | -0.0433
208 | GCGACCCC | 0.0569
209 | CGAAAGCG | -0.0626
210 | CACGGGGG | 0.171
211 | TGACCTCA | -0.148
212 | CTTGGCAA | -0.299
213 | CAATGCTG | -0.223
214 | GGAGTACA | -0.00417
215 | CAAAAGCG | -0.0161
216 | GGAATTCA | 0.174
217 | ACAAAACT | 0.00035
218 | CGTCGTAC | -0.112
219 | ACTGGAGC | -0.056
